{
  "source": "PubChem BioAssay AID624296",
  "about": "(National Center for Advancing Translational Sciences (NCATS), 2012)",
  "note": "Hit rate of the full screen: of about 350,000 compounds, about 9,900 (2.8%) were called active. Inconclusive means that the source gave no clear call. Such entries were picked first, then a sample of the others. Calls follow the shape of the dose curve; as a rule, active = well fitted activation curve with a large enough effect; inconclusive = small, poorly fitted or top-dose-only effect; inactive = no such curve, though single readings can be large or run the other way. No potency is given beside an inconclusive call; the fits are too rough. Potency is read from the fitted curve at half-maximal effect; tags tell the direction and shape of the fitted curve.",
  "data": [
    {"assay": "A quantitative high throughput screen for small molecules that induce DNA re-replication in MCF 10a normal breast cells; also: nearly all actives have a fitted effect of over 50% in size.", "conditions": "MCF 10A DNA re-replication, Hoechst nuclear intensity, 48 h; series mostly up to 46.1 µM", "values": [
      {"smiles": "CCC(=O)Oc1ccc2c(=O)c(-c3ccc4ccccc4n3)c(CC)oc2c1C", "Potency": "inactive"},
      {"smiles": "Cc1nn(S(=O)(=O)c2ccc(Br)cc2)c(C)c1S(=O)(=O)N1CCOCC1", "Potency": "inactive"},
      {"smiles": "CCCCCc1c(C)[nH]c2nc3ccccc3n2c1=O", "Potency": "inactive"},
      {"smiles": "O=C(CCC(=O)NNC(=O)Nc1ccc(Cl)cc1)NCc1ccccc1", "Potency": "inactive"},
      {"smiles": "O=C1NC(=S)SC1=Cc1ccc(Cl)cc1", "Potency": "active: 9.2 µM"},
      {"smiles": "CCOC(=O)C1CCN(C(=O)Cn2nc(C)n3c(cc4cc(F)ccc43)c2=O)CC1", "Potency": "inactive"},
      {"smiles": "CN(C)c1ccc(C(=O)/C=C/c2ccccc2)cc1", "Potency": "inconclusive [activator, single point]"},
      {"smiles": "Cc1ccc(S(=O)(=O)NC(CC(=O)O)c2ccc(F)cc2)cc1", "note": "(configuration not stated)", "Potency": "inconclusive [activator, partial curve, poor fit]"},
      {"smiles": "COc1cc(C(=S)N2CCOCC2)cc(OC)c1OS(=O)(=O)c1ccc(C)cc1", "Potency": "inconclusive [activator, partial curve, poor fit]"},
      {"smiles": "CCc1ccc(C(=O)Nc2ccc(OC)c(S(=O)(=O)N3CCCCC3)c2)cc1", "Potency": "inactive"},
      {"smiles": "O=C(NCc1ccccc1)C(=O)NCC1OCCN1S(=O)(=O)c1ccc(Br)cc1", "note": "(configuration not stated)", "Potency": "inactive"},
      {"smiles": "C#CCn1c(=NC(=O)c2ccc(S(=O)(=O)N3CCc4ccccc4C3)cc2)sc2cc(S(N)(=O)=O)ccc21", "Potency": "active: 4.11 µM"},
      {"smiles": "CC(C)c1ccc(CCNC(=O)CSC(=S)N2CCCC2)cc1", "Potency": "inconclusive [activator, partial curve, poor fit]"},
      {"smiles": "c1ccc(CN2CCN(Cc3c[nH]c4ccccc34)CC2)cc1", "Potency": "inconclusive [activator, partial curve, poor fit]"},
      {"smiles": "OCCCn1c(C2CCCN2c2nc(-c3ccc(F)cc3)cs2)nc2cc(Cl)c(Cl)cc21", "note": "(configuration not stated)", "Potency": "inconclusive [activator, single point]"},
      {"smiles": "COCCn1c(C)cc(C(=O)CSc2nnnn2C2CCCC2)c1C", "Potency": "inconclusive [activator, single point]"},
      {"smiles": "Cc1[nH]n(C(N)=S)c(=O)c1N=Nc1ccccc1C(F)(F)F", "Potency": "inactive"},
      {"smiles": "CCOC(=O)c1c(-c2ccc(F)cc2)csc1NC(=O)c1c(-c2ccccc2)noc1C", "Potency": "inconclusive [activator, partial curve]"},
      {"smiles": "COc1ccccc1N1CCN(c2ncnc3c2oc2ccccc23)CC1", "Potency": "active: 3.26 µM"},
      {"smiles": "COC(=O)c1ccc(-n2nnnc2SCC(=O)N2CCCCC2)cc1", "Potency": "inactive"},
      {"smiles": "Cc1cccc(C(=O)NCCC(=O)N2CCc3ccccc3C2)c1", "Potency": "inactive"},
      {"smiles": "COc1ccc(CNCCc2ccccc2)cc1OCC(N)=O", "Potency": "inactive"}
    ]}
  ]
}
